Some of the results follow.
tested on: PfSIP2 AP2 domain 1 (GST-tagged); assay: gcPBM binding intensity (ln(normalized median fluorescence intensity)); higher = stronger DNA binding
Outline: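 DNA-binding domains from P. falciparum, fused to GST and produced in E. coli, were put on an Agilent 4 × 180k double-stranded probe array for 1 h in 1× PBS holding 1% milk, 0.2 mg/ml BSA, 0.5% salmon testes DNA and 0.03% Triton X-100. Probes were primer-extended, 36 bp long and drawn from intergenic genomic regions, with negative controls included. After Alexa488 anti-GST antibody detection and a 488 nm scan, binding intensity was set as the highest Masliner-normalised natural-log median intensity across replicate spots of either probe orientation.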

| Sequence | gcPBM binding intensity (ln) |
| --- | --- |
| GGTGAAATTATTTCTACATGCAGAAATAATTAATTA [TGCATGCA_site194] | 6.93 |
| TTTTTTTTTTTGGCTAGTACATATGTATTTAAAATG [XGTACX_site7770] | 7.25 |
| AATTTAATATAATGCACACATAAAAAAAAAATCAAA [CACACA_site1] | 7.41 |
| TGTTGTTCCAATTTTTGTACATAAAACATATATATA [XGTACX_site5719] | 7.33 |
| AAGAAAATATAAAATGCACACTATAAATTGTATATA [CACACA_site7928] | 7.84 |
| AAAAAAAAAAAAAATTGTACATTAAATTAAAAGAAA [XGTACX_site8708] | 7.09 |
| AAAAAAAAAAATACTTGTACTTATATAATATATTAT [XGTACX_site8333] | 6.97 |
| TTTTATCAATAAATTCGTACACATGAACTAGAGAGT [XGTACX_site5758] | 7.35 |
| TACATTCTAATAATTGCACACTGGTTATTAAAAGGA [CACACA_site1614] | 7.16 |
| TTTTTATTTATATTTCATTGAAGTTAAATTATTTTA [XGTACX_negctrl_site575] | 6.93 |
| ATTAGTATATTTCTCTGTACTTACATTAAAATATAA [XGTACX_site2217] | 7.08 |
| AATTTAATATTCATCTCTAAAGCTATAACAATTACT [CACACA_negctrl_site1079] | 6.78 |
| TCCTTAAAATATGGTTGTACGTACATCCTAGGTGTT [XGTACX_site7068] | 7.34 |
| ATACAAATTTATATTTCACACATTATTATATACTTA [CACACA_site6034] | 7.05 |
| TCTGAAAATTAGAAAAGTACAAAATGGTATAGGAAA [XGTACX_site4396] | 7.18 |
| TGTATTATATATGTGTGTACATATTTTTTTTTTTTT [XGTACX_site3351] | 7.45 |
| ATATATATATATAAATGTACAGGCTTATCTCTTATT [XGTACX_site1828] | 9.75 |
| AAATTATTTCAAATGTTGCACTAAAAATAAAATTAT [GTGCAC_site9460] | 7.78 |
| CGCACACGCAGACACACACACACATATAAATAAATA [CACACA_site7101] | 7.29 |
| AAAAAAAAGAAAAAAAAAAAAAAAAAAAAAAAAAAA [CACACA_negctrl_site489] | 7.09 |
| TATATAAATAAAAAAAGTACATTACTTTTTAATTTA [XGTACX_site285] | 6.96 |
| ATCATACCTTTTAATGTACACACATTTCTTTTTTGT [CACACA_site8198] | 7.13 |
| AGAAAGGATATTATATGTACATATCTTTGTATTTTT [XGTACX_site5040] | 6.87 |

| Sequence | gcPBM binding intensity (ln) |
| --- | --- |
| CATACCCATAAACACACACACATATATACCTATATA [CACACA_site4745] | 7.13 |
| TAGTATGATAACTTGGGTACATAAATATGGAGTATC [XGTACX_site1296] | 7.24 |
| TTTTTAATTCAAAAAACTGTATGTTATATGTCAAAT [CACACA_negctrl_site72] | 6.92 |
| TTCATTTTATTTTAAGTGCATATTTTTATTTTTTTG | 8.27 |
| AGAATTTAGAAACAATGTTGTATATGTAATACCTTT [XGTACX_negctrl_site149] | 6.75 |
| TATATATATAAAAAAAGTACGTATTTAATAAAAATA [XGTACX_site4992] | 7.81 |
| GATATTATGTGTTTGGTATTTCGATCTTGTCAGGAC [CACACA_negctrl_site426] | 6.99 |
| ATTTCTATATATTGTGCATGCCATTACACCAAATAT [TGCATGCA_site813] | 7.57 |
| TATATATATAAATACACACACACATATATATATATA [CACACA_site4585] | 9.26 |
| TCATTTTACAGATGTGCATGTGAATCAATCTATTTA [TGCATGCA_site787] | 7.19 |
| AAAAAAAAAAAAAAAACACACAAACAAATGAATAAA [CACACA_site5769] | 7.59 |
| AATATACAAATTACAAGTACAAATCAATATTATATG [XGTACX_site7521] | 6.95 |
| GTATATAATTTATATTGTACGCATATTATTATCATT [XGTACX_site7277] | 7.22 |
| TGTAGTTTTTATTTATGTACGCATAACATAATTTAA [XGTACX_site104] | 7.38 |
| ACGAAGTATATGAATACACACATATTTTTAATGAAA [CACACA_site4070] | 6.67 |
| AGTAAATTTGATGGTCGTACAAAAAAAAAGTAGGAC [XGTACX_site2600] | 7.12 |
| TTTTTAATCAGAAATATTTATTAAAGAATTTTATAG [GTGCAC_negctrl_site725] | 6.65 |
| ATATACATAATTTGGAGTACAATATCATATAAATAT [XGTACX_site6334] | 7.25 |
| AATGTACAAATACGTACACACATATATATATATATA [CACACA_site1542] | 9.03 |
| GTATAAAATATTTTATGTACATAATATATATATATA [XGTACX_site2489] | 8.68 |
| AAATAAAGGAAATGTATATCAACATTAAAATAAGGC [CACACA_negctrl_site441] | 7.24 |
| TTTTACAATAACAATACACACTATAATATGTAAATA [CACACA_site6772] | 7.11 |
| CATTTAAAATTTGTTTGTACATATATATATATATAT [XGTACX_site6729] | 9.76 |

| Sequence | gcPBM binding intensity (ln) |
| --- | --- |
| ATATATATATATATATGTACTTATGTCATCATTAAA [XGTACX_site5316] | 9.75 |
| TATATGTATGTTTGTGTGCACACATAAATATTATAT | 8.48 |
| TAGTATAATATGAACACACACACACCGACAAAAAAA [CACACA_site5151] | 7.02 |
| AATTGAAAAAGAAATTGTACATTTTATTTTTATTAT [XGTACX_site1973] | 6.81 |
| ATATAATTTATATATTCACACAAGGAATACTTTTAT [CACACA_site5506] | 6.93 |
| ATACATATATATATATGTACATATGTATTTTTTATT [XGTACX_site105] | 7.38 |
| AATAAAATATATTCCTGTACATATGATTCTTTTTTT [XGTACX_site7980] | 6.94 |
| TTTACATATTTATATACACACTTTTGCGTGCGTGGT [CACACA_site6647] | 7.13 |
| ACTATACAGTTATACACACACATATATCTATAATAT [CACACA_site6283] | 7.39 |
| ATGGAATAATCACGTACACACAAGAAAAAAAAAAAT [CACACA_site527] | 7.2 |
| GGATAATATATTAGAACACACATATATATGTAAAAA [CACACA_site185] | 7.08 |
| ATTACAAATACAAACACACAAATGTTTTTCATTCAA [CACACA_site7639] | 6.94 |
| TTTTATTTGACAAGCACACACTTAAATATATATATA [CACACA_site5792] | 8.79 |
| AAACAAAAAATAAAATGTACATTTATTACGATAAGT [XGTACX_site2392] | 7.48 |
| TATATATGTAGACGTTGTACTTTTTTGTAAGTTTAA [XGTACX_site5638] | 7.27 |
| TGTGTCAAGTTTAATAAACGCATATAATATATATGA [CACACA_negctrl_site607] | 6.85 |
| TTTAAATTTTTATATTGTACTTTATTTATTTATTTA [XGTACX_site869] | 6.95 |
| CATGACATATCCTGTAGTACAACGTATATATAAGAT [XGTACX_site2577] | 7.01 |
| AAAATAAAATCATAAAGTACAAAAAGAAAATAAAAA [XGTACX_site7376] | 6.99 |
| TTTAATTTTTATATAACACACATATTGTAATTATGT [CACACA_site4566] | 6.97 |
| ATGTTTAATTAAATATGTACTTATTATATTATATGT [XGTACX_site8137] | 7.23 |
| AGGAATCTACATATATGTACATATATTGATATATTT [XGTACX_site137] | 6.88 |
| TCAATAAATATACATACATGCATACATACATACATA [TGCATGCA_site197] | 7.07 |

| Sequence | gcPBM binding intensity (ln) |
| --- | --- |
| TGTGTTAATATGAATTTAAACATAAATAAATAAATA [CACACA_negctrl_site1589] | 6.69 |
| AATTTTCAATAGTATACACACAATTATATATATATA [CACACA_site1116] | 9.37 |
| TCTTTTCTCGGAAGGGTGCAAGGAATTAATGAAATA [GTGCAC_site9706] | 11.1 |
| ATAAAAACTACATTCACACAAAAAAAAATCTACAAA [CACACA_site6109] | 6.87 |
| AATAATATTAATAAAAGTACATGTGTAATATATATA [XGTACX_site5922] | 7.65 |
| ATAAAGATAATATATGCACACATATAAATATATAAA [CACACA_site9153] | 7.18 |
| ATATATATATGTTAGGTGCATATATATTTTGTGGAT [GTGCAC_site9964] | 9.6 |
| ATATATATAATATATTGTACATATAATATATATATA [XGTACX_site4792] | 8.72 |
| ACATCTAGGCTTATTTTATGATACATGTGAATATAT [TGCATGCA_negctrl_site325] | 6.97 |
| GTTTTTGAGTAGTACACACACAATAAGGATGGATTC [CACACA_site3192] | 7.16 |
| ATAATTTCTATTTCACAAAAAAAAAAAAAAAAAAAA [CACACA_negctrl_site1012] | 6.95 |
| ACTAAAAGGCTTAAATGTACATATTATATATATATA [XGTACX_site5897] | 9.22 |
| ACATAACTTATATATACACACAATACAAATATATAT [CACACA_site2774] | 7.27 |
| GAATAATTAAAAGGTAGTACAAAGGTTATCAAAAGG [XGTACX_site8496] | 7.3 |
| GATATGATTATGTGATGGTGTTTTTGATAGATATTT [CACACA_negctrl_site1445] | 6.77 |
| TTGTTCTTTTGAAAGGTGCAAAAGAAAAATAATTAA | 11.2 |
| AGAAAACCGAAAGAGACACACAACATGTCGATTTAG [CACACA_site3764] | 6.62 |
| AGTTTTATGTAGTGTTGTACTTTATACAAATATATA [XGTACX_site990] | 7.16 |
| TACAAAAATGTAGTCACACATATGTATACTTTTATG [CACACA_site5607] | 6.8 |
| AGTAATAATATAATTTGTACATATATATATTATAAA [XGTACX_site7138] | 7.09 |
